# This is one part of the list. The full chains were built here from the parent and the listed change. Inactive controls read about 0.05.
# B1: TEV protease; numbered along this chain (parent)
# chain: MGESLFKGPRDYNPISSSICHLTNESDGHTTSLYGIGFGPFIITNKHLFRRNNGTLVVQSLHGVFKVKDTTTLQQHLVDGRDMIIIRMPKDFPPFPQKLKFREPQREERICLVTTNFQTKSMSSMVSDTSCTFPSGDGIFWKHWIQTKDGQCGSPLVSTRDGFIVGIHSASNFTNTNNYFTSVPKNFMELLTNQEAQQWVSGWRLNADSVLWGGHKVFMVKPEEPFQPVKEATQL
# Variants of: B1
# Test: raw area under fraction-flipped curve 0-4 h after induction (AUC4h, not background-subtracted), DNA-recorder readout of cleavage of the substrate (dimensionless); higher = more cleavage of the substrate by the protease variant
# Settings: temperature: 34 °C; time window: 0-4 h after rhamnose induction
# Protocol: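 In vivo DNA recorder in E. coli TOP10(DE3) ΔrhaA at 34 °C. Each TEVp single-site mutant (parent TEVp 0) is paired with a single-site variant of the 7-mer TEVs (canonical ENLYFQ|S). The substrate sits between flexible linkers in a Bxb1-sfGFP-TEVs-SsrA fusion, so cleavage stabilises Bxb1 and speeds flipping of a recombination array, read by NGS. The value is the raw area under the fraction-flipped curve over 0-4 h after rhamnose induction (AUC4h), with ≥20 reads per time point. It is not background-subtracted; inactive controls average about 0.047.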
# 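Also: Bxb1 expression induced with 0.2% (w/v) L-rhamnose at OD600 near 0.5, cultures sampled hourly, flipped fraction per protease–substrate barcode pair counted by paired-end Illumina sequencing.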
Variant,area with substrate ENLYFQA,area with substrate ENLYFQC,area with substrate ENLYFQE,area with substrate ENLYFQF,area with substrate ENLYFQG,area with substrate ENLYFQH,area with substrate ENLYFQI,area with substrate ENLYFQK,area with substrate ENLYFQL,area with substrate ENLYFQN,area with substrate ENLYFQP,area with substrate ENLYFQR,area with substrate ENLYFQS,area with substrate ENLYFQT,area with substrate ENLYFQV,area with substrate ENLYFQW,area with substrate ENLYFQY,area with substrate ENLYFQM,area with substrate ENLYFQQ,area with substrate ENLYFQD
MGESLFKGPRDYNPISSSICHLTNESDGHTTSLYGIGFGPFIITNKHLFRRNNGTLVVQSLHGVFKVKDTTTLQQHLVDGRDMIIIRMPKDFPPFPQKLKFREPQREERICLVTTNFQTKSMSSMVSDTSCTFPSGDGIFWKHWIQTKDGQCGSPLVSTRDGFIVGIHSASNFTNTNNYFTSVPKNFMELLTNQEAQEWVSGWRLNADSVLWGGHKVFMVKPEEPFQPVKEATQL [Q198E],0.148,0.124,0.0618,0.0743,0.108,0.1,0.0605,0.0594,0.0649,0.0901,0.0443,0.0628,0.118,0.0644,0.0579,0.0722,0.103,–,–,–
MGESLFKGPRDYNPISSSICHLTNESDGHTTSLYGIGFGPFIITNKHLFRRNNGTLVVQSLHGVFKVKDTTTLQQHLVDGRDMIIIRMPKDFPPFPQKLKFREPQREERICLVTTNFQTKSMSSMVSDTSCTFPSGDGIFWKHWIQTKDGQCGSPLVSTRDGFIVGIHSASNFTNTNNYFTSVPKNFMELLTNQEAQRWVSGWRLNADSVLWGGHKVFMVKPEEPFQPVKEATQL [Q198R],0.0954,0.0963,–,0.078,0.117,0.0632,–,–,0.0617,0.079,–,0.0263,0.108,0.0677,0.0672,0.0568,0.0607,0.0857,0.0814,–
MGESLFKGPRDYNPISSSICHLTNESDGHTTSLYGIGFGPFIITNKHLFRRNNGTLVVQSLHGVFKVKDTTTLQQHLVDGRDMIIIRMPKDFPPFPQKLKFREPQREERICLVTTNFQTKSMSSMVSDTSCTFPSGDGIFWKHWIQTKDGQCGSPLVSTRDGFIVGIHSASNFTNTNNYFTSVPKNFMELLTNQEAQQCVSGWRLNADSVLWGGHKVFMVKPEEPFQPVKEATQL [W199C],0.0596,0.0698,–,–,–,–,0.0597,0.073,–,0.0339,–,–,0.0659,0.062,–,–,0.0697,0.0524,–,0.0684
MGESLFKGPRDYNPISSSICHLTNESDGHTTSLYGIGFGPFIITNKHLFRRNNGTLVVQSLHGVFKVKDTTTLQQHLVDGRDMIIIRMPKDFPPFPQKLKFREPQREERICLVTTNFQTKSMSSMVSDTSCTFPSGDGIFWKHWIQTKDGQCGSPLVSTRDGFIVGIHSASNFTNTNNYFTSVPKNFMELLTNQEAQQRVSGWRLNADSVLWGGHKVFMVKPEEPFQPVKEATQL [W199R],0.0675,0.0693,–,–,–,0.0608,0.0574,0.0617,0.0584,0.0541,–,0.0674,0.0612,0.0598,0.0587,0.0541,0.0658,–,–,0.0736
